From publication PMC6451091 come the findings set out here.

The target in assay [1] is PU.1 (IVT) (UniProt P17947). Description: protein-binding microarray (PBM). The note with it: 20 mM HEPES pH 7.9, 100 mM NaCl, 1 mM DTT, 0.2 mg/mL BSA, 0.02% Triton X-100, 2% milk, 0.4 mg/mL salmon testes DNA; 1 h; temperature not stated; high values mean tight binding; double strand, one strand shown; sequences stand for … in GCCTAGCAC…GTGCTAGGTCTTGATTCGCTTGACGCTGCTG
The target of assay [2] is PU.1 (endogenous, THP-1 nuclear extract) (UniProt P17947). Description: nuclear extract protein-binding microarray (nextPBM). The note with it: 20 mM HEPES pH 7.9, 100 mM NaCl, 1 mM DTT, 0.2 mg/mL BSA, 0.02% Triton X-100, 2% milk, 0.4 mg/mL salmon testes DNA; 1 h; temperature not stated; high values mean tight binding; double strand, one strand shown; sequences stand for … in GCCTAGCAC…GTGCTAGGTCTTGATTCGCTTGACGCTGCTG

The target of assay [3] is T1, FLI1 (endogenous, THP-1 nuclear extract) (UniProt Q01543).
T1 sequence: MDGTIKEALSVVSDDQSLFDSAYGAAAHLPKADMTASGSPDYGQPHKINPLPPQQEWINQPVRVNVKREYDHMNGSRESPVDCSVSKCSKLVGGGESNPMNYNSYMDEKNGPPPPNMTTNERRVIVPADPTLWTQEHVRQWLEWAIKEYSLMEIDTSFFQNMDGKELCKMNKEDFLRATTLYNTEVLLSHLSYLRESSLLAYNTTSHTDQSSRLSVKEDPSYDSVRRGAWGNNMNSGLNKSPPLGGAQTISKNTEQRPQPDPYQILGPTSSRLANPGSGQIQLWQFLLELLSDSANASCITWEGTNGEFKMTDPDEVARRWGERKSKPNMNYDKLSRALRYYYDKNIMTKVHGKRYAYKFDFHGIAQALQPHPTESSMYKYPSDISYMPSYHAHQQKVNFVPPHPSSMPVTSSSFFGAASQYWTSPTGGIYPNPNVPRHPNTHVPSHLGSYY
Described as above. Conditions: 20 mM HEPES pH 7.9, 100 mM NaCl, 1 mM DTT, 0.2 mg/mL BSA, 0.02% Triton X-100, 2% milk, 0.4 mg/mL salmon testes DNA; 1 h; temperature not stated; high values mean tight binding; double strand, one strand shown; sequences stand for … in GCCTAGCAC…GTGCTAGGTCTTGATTCGCTTGACGCTGCTG

The target in assay [4] is PU.1 (endogenous, THP-1 nuclear extract) (UniProt P17947). Description: nextPBM. Conditions: 20 mM HEPES pH 7.9, 100 mM NaCl, 1 mM DTT, 0.2 mg/mL BSA, 0.02% Triton X-100, 2% milk, 0.4 mg/mL salmon testes DNA, 1 h; temperature not stated; double strand, one strand shown; sequences stand for … in GCCTAGCAC…GTGCTAGGTCTTGATTCGCTTGACGCTGCTG
Assay [5] addresses T1, FLI1 (endogenous, THP-1 nuclear extract). The assay can be described thus: nextPBM. The note with it: 20 mM HEPES pH 7.9, 100 mM NaCl, 1 mM DTT, 0.2 mg/mL BSA, 0.02% Triton X-100, 2% milk, 0.4 mg/mL salmon testes DNA, 1 h; temperature not stated; double strand, one strand shown; sequences stand for … in GCCTAGCAC…GTGCTAGGTCTTGATTCGCTTGACGCTGCTG
Assay [6] addresses T2, IRF8 (endogenous, THP-1 nuclear extract) (UniProt Q02556).
T2 sequence: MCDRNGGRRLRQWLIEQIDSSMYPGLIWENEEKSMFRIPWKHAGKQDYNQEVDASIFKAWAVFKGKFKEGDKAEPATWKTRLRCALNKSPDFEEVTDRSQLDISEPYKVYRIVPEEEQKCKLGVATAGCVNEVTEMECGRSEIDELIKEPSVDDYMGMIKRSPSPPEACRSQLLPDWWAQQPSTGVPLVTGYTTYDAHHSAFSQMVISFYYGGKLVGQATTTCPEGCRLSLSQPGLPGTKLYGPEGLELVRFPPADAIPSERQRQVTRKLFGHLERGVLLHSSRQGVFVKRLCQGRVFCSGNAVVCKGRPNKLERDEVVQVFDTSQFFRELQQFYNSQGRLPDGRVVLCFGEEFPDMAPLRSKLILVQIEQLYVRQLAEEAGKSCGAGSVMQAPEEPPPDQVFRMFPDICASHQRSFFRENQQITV
The assay can be described thus: nextPBM. Conditions: 20 mM HEPES pH 7.9, 100 mM NaCl, 1 mM DTT, 0.2 mg/mL BSA, 0.02% Triton X-100, 2% milk, 0.4 mg/mL salmon testes DNA, 1 h; temperature not stated; double strand, one strand shown; sequences stand for … in GCCTAGCAC…GTGCTAGGTCTTGATTCGCTTGACGCTGCTG

Values joined by “and” are separate entries in the source; they are usually repeats but may differ in a detail not shown here. Identical values can stand only once. The list shows a part of the results. For some of these results: At the low end of the ranking the order means little. For some of these results: Measured with an extract: partners may take part in the binding.

In the case of ATGGAGAGGAAGTGGCAGAG, the binding signal in assay [1] amounted to 3.94 z-score; in assay [2], 3.48 z-score; in assay [3], 3.13 z-score.

With TGAAAGAGGCAGTGCAACCA, the binding signal in assay [1] was -0.242 z-score; in assay [2], -0.235 z-score; in assay [3], -0.55 z-score.

AAATAGAGGAAGTCAGAGAG: the binding signal in assay [4] worked out at 6.77 z-score; in assay [1] it was 6.22 z-score; in assay [2], 6.71 z-score; in assay [3] it was 3.05 z-score.

On to AATATAGGGAAGTGCTTAAC, for which the binding signal is 2.15 z-score in assay [5]; 5.78 z-score in assay [4]; 5.82 z-score in assay [1]; 5.84 z-score in assay [2]; 2.15 z-score in assay [3].

With GATAAGAGGAAGTCCTCTGC, the binding signal in assay [1] was found to be 6.09 z-score; in assay [2], 6.52 z-score; in assay [3], 2.52 z-score.

In the case of ATTTTAAGGAAGTGAAACCC, the binding signal in assay [5] is 3.2 z-score; in assay [4], 7.89 z-score and 5.37 z-score and 5.61 z-score; in assay [1], 5.72 z-score; in assay [3], 3.2 z-score.

In the case of GATAAGAGGAAGTCCTCTCT, the binding signal was determined as 6.41 z-score in assay [1], 6.6 z-score in assay [2] and 3.18 z-score in assay [3].

On to AAAAAGGGGAAGTACTGCGA, for which the binding signal stood at 8.58 z-score in assay [1], 7.45 z-score in assay [2] and 3.47 z-score in assay [3].

On to CGGAAGAGGAAGTAGCTGAA, for which the binding signal came to 6.49 z-score in assay [1], 6.76 z-score in assay [2] and 5.23 z-score in assay [3].

Take AAAATGAGGAACTGAGCTGT: the values for the binding signal in assay [1], in assay [2] and in assay [3] were 6.74 z-score, 6.91 z-score and 2.28 z-score, respectively.

Take TGAAAGAGGAAGTGAACCAT: the binding signal in assay [1] came to 7.46 z-score; in assay [2], 7.51 z-score; in assay [3], 4.24 z-score.

As to GCTATAGGGAAGTGGGCAGT, the binding signal was 4.02 z-score in assay [1], 4.54 z-score in assay [2] and 1.57 z-score in assay [3].

For TAAAAGAGGAAGTGGCAGAT, the binding signal amounted to 0.184 z-score in assay [6], 8.54 z-score in assay [4] and 4.62 z-score in assay [3].

For the sequence GAAAAGAGGAAGTGGAAACA, the binding signal in assay [4] amounted to 8.74 z-score; in assay [3] it was 4.09 z-score.

In the case of CGGGAGAGGAAGTGACCCAT, the binding signal in assay [1] worked out at 4.4 z-score; in assay [2], 4.61 z-score; in assay [3], 2.95 z-score.

With GAAAAGGGGAAGTGTATTCC, the binding signal was 3.67 z-score in assay [5], 7.97 z-score in assay [4] and 3.67 z-score in assay [3].

With TAAGAGAGGAAGTCATGCCA, the binding signal in assay [1] is 3.58 z-score; in assay [2], 3.43 z-score; in assay [3], 2.26 z-score.

AGAGAGGGGAACTGCCGCAG: the binding signal in assay [1] is 1.81 z-score; in assay [2], 1.85 z-score; in assay [3], 0.0985 z-score.

For the sequence GCTTTAGGGAACTACTGTGG, the binding signal in assay [1] turned out to be 3.58 z-score; in assay [2], 3.29 z-score; in assay [3], 0.606 z-score.

As to CAGATAGGGAAGTGACACAC, the binding signal in assay [1] was 4.78 z-score; in assay [2], 5.26 z-score; in assay [3] it was 1.73 z-score.

Take TGAAAGAGGAAGTGCATCCA: the binding signal turned out to be 7.57 z-score in assay [1], 7.12 z-score in assay [2] and 3.68 z-score in assay [3].

As for ATAAGGAGGAAGTGAGACAG, the binding signal is -0.052 z-score in assay [6]; 4.74 z-score in assay [4]; 4.54 z-score in assay [1]; 5.01 z-score in assay [2]; 2.72 z-score in assay [3].

Consider GAAAACAGGAAGTGGACAAC, for which the values for the binding signal in assay [4] and in assay [3] were 7.79 z-score and 5.2 z-score, respectively.

For GAAAACAGGAAGTCAACGGC, the binding signal amounted to 7.37 z-score in assay [1], 7.07 z-score in assay [2] and 4.77 z-score in assay [3].

As for GAAAAGAGGAAGTCAGATTG, the binding signal in assay [6] turned out to be 0.241 z-score; in assay [4], 8.66 z-score; in assay [3], 3.77 z-score.

TGTGAGAGGAAGTGCTAGTT: the binding signal in assay [1] stood at 4.42 z-score; in assay [2], 4.51 z-score; in assay [3], 2.91 z-score.
